{"source": "PubChem BioAssay", "note": "The inconclusive results got no clear call from the source; some entries with a clear call stand among them for comparison. Calls of active or inactive are those of the source.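 Rule for the calls: active = cell viability at or below a set limit in both duplicate runs, the limit being the all-compound median minus 4 SD (cut at about 23% in these data, passing the limit was not always enough); inconclusive = no clear call, values can overlap the other calls; inactive = the rest.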", "data": [{"assay": "viability of HCT116 without oncogenic beta-catenin – human colon tumor cells, pilot screen (AID 823);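 note: 0% = wells killed by 20 µM Hyamine and 100% = untreated DMSO cell wells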", "settings": "HCT116 beta-catenin knockout viability, CellTiter-Glo, 60 h; at 10 µM; hits give low values", "values": [{"compound": "O=C(CCS(=O)(=O)c1cccc2nsnc12)NCc1ccccc1", "viability": "inconclusive: 103%"}, {"compound": "CS(=O)(=O)N(CC(=O)N1CCCCCC1)c1cccc(Br)c1", "viability": "inconclusive: 98.7%"}, {"compound": "O=S(=O)(NCCc1csc(-c2cccnc2)n1)c1ccc2c(c1)OCCO2", "viability": "inconclusive: 61.7%"}, {"compound": "O=C(Nc1ccc(F)cc1)c1cc(S(=O)(=O)N2CCCCC2)cs1", "viability": "inconclusive: 64.2%"}, {"compound": "CC(CCc1ccco1)NC(=O)c1cc2c(-c3ccccc3F)nn(C)c2s1", "note": "(stereo not drawn)", "viability": "inactive: 83.3%"}, {"compound": "COc1cc2c(cc1OC)C(c1cccs1)NCC2", "note": "(stereo not drawn)", "viability": "inconclusive: 96.7%"}, {"compound": "O=C(c1ccsc1)N1CCN(C(=O)c2cccs2)CC1", "viability": "inconclusive: 100%"}, {"compound": "CCN1C(=S)SC(=O)C1=C1C=C(C)N(CCO)C(C)=C1", "viability": "inconclusive: 97.5%"}, {"compound": "CCC(=O)Nc1sc2c(c1C#N)CC(C)(C)NC2(C)C", "viability": "inconclusive: 108%"}, {"compound": "CC(C)Cn1c(SCC(=O)NC2CCCc3ccccc32)nc(O)cc1=O", "note": "(stereo not drawn)", "viability": "inconclusive: 106%"}, {"compound": "CCOc1ccc(CC(=O)NCc2cn3c(C)csc3n2)cc1", "viability": "inactive: 97.4%"}, {"compound": "O=C(NCc1ccco1)C1CCN(C(=O)Cc2ccccc2)CC1", "viability": "inconclusive: 90.6%"}, {"compound": "CCN1CCN(CCNC(=O)C2CCCN(Cc3nc(-c4cccc(Cl)c4)oc3C)C2)CC1", "note": "(stereo not drawn)", "viability": "inconclusive: 24.9%"}, {"compound": "CCN(CC)C(=O)C(C)N(C#N)c1nc(NC(C)C)nc(NC(C)C)n1", "note": "(stereo not drawn)", "viability": "inconclusive: 105%"}, {"compound": "O=c1oc2c3c4c(cc2c2c1CCC2)OCCN4CCC3", "viability": "inactive: 58.3%"}, {"compound": "COc1ccc(N2CCN(CCNC(=O)CCS(=O)(=O)c3cccc4nsnc34)CC2)cc1", "viability": "inactive: 98.5%"}, {"compound": "Cc1ccc(S(=O)(=O)N(CC(=O)N2CCOCC2)C2CCCCC2)cc1", "viability": "inconclusive: 99.2%"}, {"compound": "COc1ccc(NC2CS(=O)(=O)CC2NCc2ccco2)cc1", "note": "(stereo not drawn)", "viability": "inconclusive: 99.9%"}, {"compound": "COC(=O)CNC(=O)Cn1cnc2sc(C)c(S(=O)(=O)N3CCC(C)CC3)c2c1=O", "viability": "inconclusive: 95.4%"}, {"compound": "O=C(NC1(C(=O)NC2CCCCC2)CCCCC1)c1ccc2c(c1)OCO2", "viability": "inconclusive: 89.5%"}, {"compound": "COCCOC(=O)c1c(C)oc2ccc(OC(=O)c3cccs3)cc12", "viability": "inconclusive: 106%"}, {"compound": "COc1ccc(C2CC(=O)C(C=NCCO)=C(O)C2)cc1OC", "note": "(stereo not drawn)", "viability": "inconclusive: 108%"}, {"compound": "CCOc1cc(C2NC(=O)NC(C)=C2C(=O)OC(C)CC)cc(Br)c1O", "note": "(stereo not drawn)", "viability": "inconclusive: 97.5%"}]}]}
